# According to PubChem BioAssay AID1458 (National Center for Advancing Translational Sciences (NCATS), 2008):
# About 5,900 (2.8%) of roughly 210,000 compounds were called active. The shares of active, inactive and inconclusive entries below differ from those in the screen. Calls follow the shape of the dose curve; as a rule, active = well fitted activation curve with a large enough effect; inconclusive = small, poorly fitted or top-dose-only effect; inactive = no such curve, though single readings can be large or run the other way. Potencies of inconclusive entries are doubtful fits and often do not repeat.
# Assay: qHTS Assay for Enhancers of SMN2 Splice Variant Expression; also: nearly all actives have a fitted effect of over 55% in size
# Conditions: HEK293 SMN2-luciferase splicing reporter, luminescence, 30-36 h; series mostly up to 46.1 µM
# Procedure, shortened: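 HEK293 cells carry an SMN2 […]–luciferase reporter in which exon 7 inclusion puts luciferase in frame. Cells were plated 10-12 h before compound addition, then incubated 30-36 h at 37C. ONE-Glo luminescence was read; sodium butyrate at 4.5 mM final served as control.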
# Potency is read from the fitted curve at half-maximal effect; tags tell the direction and shape of the fitted curve.
row,Compound,Potency
1,COc1ccccc1CNC(=O)CN1C(=O)c2cccnc2Oc2ccccc21,inactive
2,O=C(CSc1nnc2ncccn12)N1CCCCCC1,"inconclusive: 0.005 µM [activator, full curve, poor fit]"
3,Cc1ccc(NC(=O)C(Cc2ccccc2)NS(=O)(=O)c2cccs2)cc1Cl (stereo unspecified),inactive
4,CC1(C)Oc2ccc(C(=O)NC3CCCC3)cc2N(CC(=O)NC2CCCCC2)C1=O,"inconclusive: 0.708 µM [activator, full curve, poor fit]"
5,CCS(=O)(=O)N1Cc2ccccc2CC1C(=O)Nc1nc2c(C)cccc2s1 (stereo unspecified),"inconclusive: 22.4 µM [activator, single point]"
6,Cc1[nH]nc2c1/C(=N\O)CC(C)(C)C2,"inconclusive: 0.004 µM [activator, full curve, poor fit]"
7,COc1ccc(NC(=O)Cn2cc(C(=O)C3CCCCC3)c3ccccc32)cc1,inactive
8,CCOc1ccc2cc(C(=O)c3ccccc3)c(=O)oc2c1,"inconclusive: 35.5 µM [activator, single point]"
9,CCc1nnc(N/N=C/c2ccccc2F)n1N,inactive
10,COc1cc(Nc2cc(C)nc3ncnn23)cc(OC)c1OC,active: 14.1 µM
11,O=C(N/N=C/c1ccc[nH]1)c1ccc2c(c1)OCO2,"inconclusive: 35.5 µM [activator, single point]"
12,CCOc1ccc(N(CC(=O)Nc2ccccc2C(=O)NC(C)CC)S(C)(=O)=O)cc1 (stereo unspecified),"inconclusive: 14.1 µM [activator, single point]"
13,O=C(COC(=O)CC1CC2CCC1C2)Nc1cc([N+](=O)[O-])ccc1F (stereo unspecified),inactive
14,O=C(NCCSCc1ccco1)Nc1ccc(Cl)cc1,"inconclusive: 15.8 µM [activator, single point]"
15,CC1=NN(C(=O)Cc2ccc(C)cc2)C(O)(c2cccnc2)C1 (stereo unspecified),"inconclusive: 3.98 µM [activator, full curve, poor fit]"
16,Cc1[nH]c(=O)[nH]c(=O)c1S(=O)(=O)N1CCN(c2cccc(Cl)c2)CC1,inactive
17,Fc1cc(F)cc(NC(=S)N2CCC(c3ccccc3)C2)c1 (stereo unspecified),active: 12.6 µM
18,O=C(Nc1ccc(Cl)cc1)c1csc(Cc2ccccc2)n1,"inconclusive: 35.5 µM [activator, single point]"
19,O=C(N/N=C/c1ccco1)c1cccc(N2CCCC2=O)c1,"inconclusive: 12.6 µM [activator, partial curve, poor fit]"
20,CC(=O)N1c2ccc(Cl)cc2C2C=CCC2C1c1cccc2ccccc12 (stereo unspecified),"inconclusive: 0.0398 µM [activator, full curve, poor fit]"
21,CCC(C)(C)OC,inactive
22,CCOC(=O)NC(=O)CSc1ccccn1,"inconclusive: 0.0562 µM [activator, full curve, poor fit]"
23,CCOC(=O)C1CCN(c2nc3ccccc3nc2C(C#N)C(=O)OC(C)COC)CC1 (stereo unspecified),"inconclusive: 3.55 µM [activator, partial curve, poor fit]"
24,COC(=O)c1c(NC(=O)CN2CCC3(O)CCCCC3C2c2cc(OC)ccc2OC)sc(C)c1C (stereo unspecified),inactive
25,CC1=NOC(=O)/C1=C\c1ccc(-c2cc(Cl)ccc2Cl)o1,inactive
26,CC(=O)C(C)Oc1ccc2c3c(c(=O)oc2c1)CCCCC3 (stereo unspecified),"inconclusive: 25.1 µM [activator, single point]"

row,Compound,Potency
1,Cc1nn(C)cc1CNC(=O)Nc1ccc(Cl)cc1,active: 15.8 µM
2,Cc1noc(C)c1S(=O)(=O)N1CCCC(C(=O)Nc2ccc(C(C)C)cc2)C1 (stereo unspecified),"inconclusive: 5.01 µM [activator, partial curve, poor fit]"
3,O=C(COC(=O)/C=C/c1nc2ccccc2s1)Nc1cccc2ccccc12,inactive
4,Cc1nc2sc(C(c3cccs3)N3CCN(C(=O)c4ccco4)CC3)c(O)n2n1 (stereo unspecified),"inconclusive: 8.91 µM [activator, partial curve, poor fit]"
5,Cc1ccc(OCc2nnc(SCC(=O)Nc3ccc4c(c3)OCO4)n2C)cc1,"inconclusive: 5.62 µM [activator, single point]"
6,Cc1ccccc1Cn1nc(C)c(NC(=O)C2c3ccccc3Oc3ccccc32)c1C,inactive
7,COC(=O)C1=C(C)NC2=C(C(=O)CC(C)(C)C2)C1c1ccccn1 (stereo unspecified),"inconclusive: 5.62 µM [activator, single point]"
8,CC(C)(C)C1CCc2c(C(=O)N/N=C/c3cccs3)csc2C1 (stereo unspecified),active: 14.1 µM
9,COC(=O)C1=C(C)N(Cc2ccc(C)cc2)C(=O)/C1=C\c1cc(OC)c(OC)c(OC)c1,"inconclusive: 1.12 µM [activator, single point]"
10,O=C(/C=C/c1ccco1)NC1=NCCS1,active: 8.91 µM
11,CCCCCCC(=O)Cc1cc(OC)c(OC)cc1C=C(C(=O)OCC)C(=O)OCC,"inconclusive: 0.0282 µM [activator, full curve, poor fit]"
12,O=C(CSc1nnc(-c2ccco2)n1Cc1ccccc1)NC(=O)NCc1ccco1,inactive
13,Cc1cc(NC(=O)c2ccco2)cc(-c2nc3cc(Cl)ccc3o2)c1O,inactive
14,CCOc1ccc(NC(=O)CC2C(=O)N(c3cccc(C)c3)C(=O)N2CCC2=CCCCC2)cc1 (stereo unspecified),inactive
15,COC(=O)Cc1ccc(NC(=O)c2ccc(C)c(C)c2)cc1,"inconclusive: 12.6 µM [activator, single point]"
16,COCCNC(=O)c1cn(C)c2ccc(S(=O)(=O)N(C)C3CCCCC3)cc2c1=O,inactive
17,CC(=O)Nc1ccc(-c2cn3cc(C)ccc3n2)cc1,active: 4.47 µM
18,Cc1ccc2cccc(OCCOCCOc3ccccc3Br)c2n1,inactive
19,CC(=O)Nc1nc(-c2ccccc2)ns1,"inconclusive: 31.6 µM [activator, single point]"
20,Cc1ccccc1C(=O)c1cccn1CC(=O)NCc1ccc2c(c1)OCO2,inactive
21,CCOc1cc(CNCCSc2nnnn2C)cc(Cl)c1OCc1ccc(Cl)cc1,inactive
22,COc1ccc(Cc2nc(-c3ccc(Cl)cc3)no2)cc1,"inconclusive: 5.62 µM [activator, single point]"
23,CCC(C)c1ccc(S(=O)(=O)N2CCN(C(=O)COc3ccc4c(C)cc(=O)oc4c3)CC2)cc1 (stereo unspecified),inactive
24,Nc1ccccc1C(=O)N=Nc1[nH]c(N)c2ccccc12,active: 17.8 µM
25,O=C(Nc1nnc(-c2cccs2)s1)C1CC1,"inconclusive: 14.1 µM [activator, single point]"
26,O=C(Nc1ccc(F)c(F)c1)c1ccc(F)c(S(=O)(=O)N2CCC3(CC2)OCCO3)c1,inactive

row,Compound,Potency
1,Cc1cc(C)cc(OCc2ccc(C(=O)O)o2)c1,"inconclusive: 1 µM [activator, partial curve, poor fit]"
2,Cc1c(N)cccc1-c1nc2ccccc2[nH]1,active: 10 µM
3,Cn1c(=O)cc(SCC(=O)N2CCN(C(=O)c3ccco3)CC2)c2ccccc21,"inconclusive: 14.1 µM [activator, partial curve, poor fit]"
4,O=C(NC(=S)Nc1ccc(O)cc1)c1ccccc1Cl,"inconclusive: 10 µM [activator, partial curve]"
5,Cc1nc2nc(C)c(CCC(=O)NCc3cccc(Cl)c3)c(C)n2n1,inactive
6,Cc1ccc(-c2nc3cc(Cl)ccc3o2)cc1,"inconclusive: 15.8 µM [activator, single point]"
7,Fc1ccc(NC(=S)NCc2ccc3c(c2)OCO3)cc1,"inconclusive: 11.2 µM [activator, partial curve]"
8,CCc1nnc(NC(=O)c2ccc(OC)cc2OC)s1,active: 2 µM
9,O=C(/C=C/c1ccccc1)Nn1cnc2ccccc2c1=O,"inconclusive: 22.4 µM [activator, partial curve, poor fit]"
10,COC(=O)CCC(=O)Nc1ccc(N=Nc2ccccc2)cc1,"inconclusive: 35.5 µM [activator, single point]"
11,C=CCn1c(SCC(=O)NCc2ccccc2)nnc1-c1ccccc1O,"inconclusive: 0.01 µM [activator, full curve, poor fit]"
12,COc1cc(-c2cc(=O)c3ccccc3o2)ccc1O,"inconclusive: 35.5 µM [activator, single point]"
13,O=C(CCl)Nc1ccc(N=Nc2ccccc2)cc1,inactive
14,Cc1ccc(C2c3c(-c4ccccc4O)n[nH]c3C(=O)N2Cc2ccncc2)cc1 (stereo unspecified),"inconclusive: 10 µM [activator, single point]"
15,COc1cccc(-c2cc(C(=O)N3CCN(c4ncccn4)CC3)c3ccccc3n2)c1,active: 35.5 µM
16,Cc1ccc(-c2nc(S(=O)(=O)c3ccc(C)cc3)c(N3CCCCC3)o2)cc1,inactive
17,CC(C)N=c1scc(-c2ccco2)n1/N=C/c1ccc(O)c(O)c1,"inconclusive: 10 µM [activator, single point]"
18,OCC(O)/C=N/Nc1nc2ccccc2s1 (stereo unspecified),"inconclusive: 11.2 µM [activator, single point]"
19,CCOc1ccc(-n2c(C)nc3c(cnn3-c3ccc(Cl)cc3)c2=O)cc1,inactive
20,O=C(CSc1nnnn1Cc1ccccc1)Nc1ccc2c(c1)OCO2,"inconclusive: 7.94 µM [activator, partial curve, poor fit]"
21,CCCCOC(=O)/C(C#N)=C/c1ccc(-c2ccc(Br)cc2)o1,inactive
22,O=C(NCCc1c[nH]c2ccccc12)c1ccc([N+](=O)[O-])cc1,"inconclusive: 35.5 µM [activator, single point]"
23,CCOC(=O)CC1=C(C(=O)OCC)C(c2cc(OC)c(OC)cc2OC)C(C#N)=C(N)O1 (stereo unspecified),"inconclusive: 0.398 µM [activator, full curve, poor fit]"
24,CC(CNC(=O)c1ccc(Nc2nc3ccccc3n3nnnc23)cc1)c1ccccc1 (stereo unspecified),"inconclusive: 3.16 µM [activator, partial curve, poor fit]"
